Laboratory results: PubChem BioAssay AID504845 (National Center for Advancing Translational Sciences (NCATS), 2011)
The campaign covered roughly 390,000 compounds. About 150 (0.038%) were called active. This list was built around the results that the source calls inconclusive (neither active nor inactive); the mix of calls is not that of the screen. Calls follow the shape of the dose curve; as a rule, active = well fitted inhibition curve with a large enough effect; inconclusive = small, poorly fitted or top-dose-only effect; inactive = no such curve, though single readings can be large or run the other way. A potency beside an inconclusive call is a rough fit, not a confirmed value.

The compounds below were run against Regulator of G-protein signaling 4 (Homo sapiens) (UniProt P49798) (assay: Inhibitors of Regulator of G Protein Signaling (RGS) 4: qHTS). Settings: Transcreener GDP fluorescence polarization, RGS4-accelerated GTP hydrolysis; series mostly up to 114 µM; activity change, negative = inhibition: at the top concentration.
Chain of UniProt P49798 (P49798 whole entry, looked up): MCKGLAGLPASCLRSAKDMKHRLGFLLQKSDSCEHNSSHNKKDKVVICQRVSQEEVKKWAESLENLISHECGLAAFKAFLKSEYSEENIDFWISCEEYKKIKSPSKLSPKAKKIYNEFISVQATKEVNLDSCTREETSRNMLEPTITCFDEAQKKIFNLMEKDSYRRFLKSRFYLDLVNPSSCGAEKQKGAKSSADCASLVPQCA
How it was run: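 MLSMR compounds (23 nl, pin-transferred) preincubated 10 min at room temperature with a 500nM (2x) first reagent, then RGS4 at 900nM (2x) plus Transcreener GDP mix added; fluorescence polarization (620/688 nm) read before and after 90 min at 30 °C.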
% is scaled to controls: 0 for no effect and ±100 for the full control effect; potency is read from the fitted curve at half-maximal effect; tags tell the direction and shape of the fitted curve.
Also: nearly all actives have a fitted effect of over 75% in size.

| Structure (SMILES) | Potency | activity change, negative = inhibition |
| --- | --- | --- |
| CN(Cc1ccccc1)c1nc(-c2cccc([N+](=O)[O-])c2)nc2ccccc12 | inconclusive: 44.7 µM [inhibitor, partial curve, poor fit] |  |
| Cc1ccccc1C(=O)NNC1=NCCC1 |  | inactive: 12.7% |
| Cc1nc2ccccc2c(=O)n1/N=C/c1ccc(O)c(O)c1O | inconclusive: 79.4 µM [inhibitor, partial curve, poor fit] |  |
| CC(=O)c1ccc(OCCCC(=O)Nc2ccc(Cl)c(S(=O)(=O)N3CCOCC3)c2)cc1 |  | inactive: -7.58% |
| COc1ccc(N2CCN(C(=O)CCNS(=O)(=O)c3ccccc3)CC2)cc1 | inconclusive: 50.1 µM [inhibitor, partial curve, poor fit] |  |
| Cc1ccc(N=Cc2cc3c(cc2O)OC(N)=C(C#N)C3c2ccccc2)cc1 (stereo not given) |  | inactive: -20.1% |
| COc1cccc(/C=N/Nc2nc3ccccc3n3cnnc23)c1O |  | inactive: -36.1% |
| COc1ccc(CNC(=O)COC(=O)c2n[nH]c3ccccc23)cc1OC | inconclusive: 100 µM [inhibitor, single point] |  |
| CCN1CCc2nc(N)sc2C1 | inconclusive: 25.1 µM [inhibitor, full curve, poor fit] |  |
| O=C(Cn1ncc2c([nH]c3ccccc32)c1=O)Nc1cc(F)ccc1F | inconclusive: 112 µM [inhibitor, partial curve, poor fit] |  |
| COc1nc(N)nc(NC(=O)c2cccs2)c1N=O | inconclusive: 79.4 µM [inhibitor, partial curve, poor fit] |  |
| O=C(Cn1nc(Cc2cccnc2)c2ccccc2c1=O)NCc1ccc(F)cc1 | inconclusive: 100 µM [inhibitor, single point] |  |
| O=C(Nc1cc(S(=O)(=O)Nc2ccc(Cl)cc2)ccc1O)c1ccc(S(=O)(=O)N2CCCCCC2)cc1 | inconclusive: 10 µM [inhibitor, full curve, poor fit] |  |
| S=C(NCCN1CCOCC1)N/N=C/c1c2ccccc2cc2ccccc12 |  | inactive: -7.44% |
| COc1ccc(-n2c(COc3ccc(C)cc3)n[nH]c2=S)cc1 | inconclusive: 79.4 µM [inhibitor, single point] |  |
| COc1ccccc1CCNC(=O)c1ccc(NC(=O)N2CC(C)Sc3ccccc32)cc1 (stereo not given) |  | inactive: -4.6% |
| CCOC(=O)C1CCCN(C(=O)CSc2ccc(Br)cc2)C1 (stereo not given) | inconclusive: 17.8 µM [inhibitor, full curve, poor fit] |  |
| O=C(/C=C/c1ccccc1)N1CCC(Cc2ccccc2)CC1 | inconclusive: 100 µM [inhibitor, single point] |  |
| CN1CCc2ccccc2Cc2[nH]c3ccccc3c2CC1 | inconclusive: 37.7 µM [inhibitor, single point] |  |
| NS(=O)(=O)c1ccc(NC(=S)NCc2ccc(Cl)cc2)cc1 | inconclusive: 20 µM [inhibitor, full curve, poor fit] |  |
| Cc1cccc2nc(-c3cccc(NC(=O)c4ccc(Cl)cc4)c3)cn12 | inconclusive: 17.8 µM [inhibitor, full curve, poor fit] |  |
| Cn1cc(CCNC(=O)CC2C(=O)NCCN2Cc2cccc(Oc3ccccc3)c2)cn1 (stereo not given) |  | inactive: -9.87% |

| Structure (SMILES) | Potency | activity change, negative = inhibition |
| --- | --- | --- |
| N#CC1=C(N)N(c2ccccc2)C2=C(C(=O)CCC2)C1c1cccs1 (stereo not given) | inconclusive: 89.1 µM [inhibitor, partial curve, poor fit] |  |
| O=C(Nc1cccc(Cl)c1Cl)c1cc(S(=O)(=O)N2CCC3(CC2)OCCO3)ccc1F |  | inactive: 7.66% |
| Cc1cccc(NC2=C(C#N)C(=O)NC3(CCCC3)S2)c1 | inconclusive: 35.5 µM [inhibitor, partial curve, poor fit] |  |
| O=C(/C=C/c1ccccc1Cl)c1cccnc1 | inconclusive: 17.8 µM [inhibitor, full curve, poor fit] |  |
| COc1cc(NC(=O)c2ccccc2[N+](=O)[O-])ccc1NC(=O)C(C)C | inconclusive: 44.7 µM [inhibitor, partial curve, poor fit] |  |
| Cc1cccc(CS(=O)(=O)c2ncc(Cl)c(C(=O)Nc3ccc(F)cc3)n2)c1 | inconclusive: 35.5 µM [inhibitor, full curve, poor fit] |  |
| CCCCCCC(=O)N(O)C1CC(=O)N(c2ccc(Cl)cc2)C1=O (stereo not given) | inconclusive: 17.8 µM [inhibitor, full curve, poor fit] |  |
| CCCCCCCCCCn1c2c(c(=N)c3c1CCC3)CCC2 | inconclusive: 79.4 µM [inhibitor, single point] |  |
| CC1(C(=O)CSc2nc3ccccc3s2)CCC(=O)O1 (stereo not given) | inconclusive: 56.2 µM [inhibitor, partial curve, poor fit] |  |
| COc1ccc(CP(=O)(c2ccccc2)c2ccccc2)cc1 |  | inactive: 22.4% |
| Cc1ccc(-c2nc3ccccn3c2Nc2c(C)cccc2C)o1 | inconclusive: 50.1 µM [inhibitor, partial curve, poor fit] |  |
| COc1cccc(/C(O)=C2/C(=O)C(=O)N(CCN(C)C)C2c2ccc(Br)cc2)c1 (stereo not given) | inconclusive: 79.4 µM [inhibitor, single point] |  |
| N#Cc1c2ncn(CC(=O)c3ccc(Br)cc3)c(=O)c2c2n1CCC2 | inconclusive: 100 µM [inhibitor, single point] |  |
| COc1ccc(-c2n[nH]c(=S)n2-c2ccc3c(c2)OCCO3)cc1 | inconclusive: 89.1 µM [inhibitor, partial curve, poor fit] |  |
| O=C(O)CCc1ccc(-c2ccc(Br)cc2)o1 | inconclusive: 79.4 µM [inhibitor, partial curve, poor fit] |  |
| Cn1nc([N+](=O)[O-])nc1Oc1ccccc1 |  | inactive: 22.5% |
| COc1ccc(S(=O)(=O)N2CCCCC2)cc1NC(=O)c1cc([N+](=O)[O-])ccc1N1CCOCC1 | inconclusive: 79.4 µM [inhibitor, single point] |  |
| COc1ccc(-n2c(C)cc(/C=N/Nc3nnc(C)n3N)c2C)cc1 | inconclusive: 79.4 µM [inhibitor, single point] |  |
| Nc1ccc(-c2nc3ccc(-c4nc5ccc(N)cc5[nH]4)cc3[nH]2)cc1 | active: 26.7 µM |  |
| COCCn1nnnc1C(c1cc2cc(C)ccc2[nH]c1=O)N1CCc2ccccc21 (stereo not given) | inconclusive: 79.4 µM [inhibitor, partial curve, poor fit] |  |
| CCN(CC)C(=O)c1sc2nc(N3CCOCC3)c3c(c2c1N)CCCC3 | inconclusive: 79.4 µM [inhibitor, partial curve, poor fit] |  |
| Cc1nn(CC(=O)NC2CCCCC2)c(=O)c2cc3cc(F)ccc3n12 |  | inactive: 27.9% |

| Structure (SMILES) | Potency | activity change, negative = inhibition |
| --- | --- | --- |
| CC1=NN(c2ccccc2)C(=O)/C1=C\N(O)c1ccccc1 | inconclusive: 50.1 µM [inhibitor, partial curve, poor fit] |  |
| COc1cc(/C=C2\SC(=O)N(CC(=O)Nc3ccc(C)cc3)C2=O)cc(Cl)c1OCC(=O)O | inconclusive: 50.1 µM [inhibitor, partial curve, poor fit] |  |
| CC1CCCN(C(C(=O)Nc2ccc3c(c2)OCO3)c2ccccc2)C1 (stereo not given) |  | inactive: 7.58% |
| N#C/C(=C/c1ccc(O)c(O)c1)C(=O)NCc1ccc(Cl)cc1 |  | inactive: -15.1% |
| CCOc1ccccc1Nc1nc(-c2cccc(Cl)c2)c2c(n1)-c1ccccc1OC2 | inconclusive: 44.7 µM [inhibitor, partial curve, poor fit] |  |
| COc1ccccc1NS(=O)(=O)c1cccc(C(=O)NCC(c2ccco2)N(C)C)c1 (stereo not given) |  | inactive: 19.1% |
| CCc1ccccc1N(CC(=O)NCC1CCCO1)C(=O)CCC(=O)Nc1nccs1 (stereo not given) | inconclusive: 17.8 µM [inhibitor, full curve, poor fit] |  |
| O=c1cc(Nc2ccc3c(c2)OCCO3)[nH]c(=O)n1C1CCCCC1 |  | inactive: -10.2% |
| CC(C)C(NC(=O)c1ccccc1)C(=O)N1CCN(C/C=C/c2ccccc2)CC1 (stereo not given) |  | inactive: 14.4% |
| COc1cc2c(cc1NC(=O)C(C)NCc1ccccc1)oc1ccccc12 (stereo not given) | inconclusive: 100 µM [inhibitor, partial curve, poor fit] |  |
| C/C(=N\NC(N)=S)c1ccc(-n2ccnc2)cc1 | inconclusive: 44.7 µM [inhibitor, partial curve, poor fit] |  |
| CCn1cc(CCC(=O)NCc2ccc(F)cc2)c2ccccc21 | inconclusive: 17.8 µM [inhibitor, full curve, poor fit] |  |
| CCOc1cccc(/C(O)=C2/C(=O)C(=O)N(CCOC)C2c2ccco2)c1 (stereo not given) |  | inactive: -25.1% |
| O=c1c(-c2ccc(Br)cc2)[n+]([O-])c2ccccc2n1OCc1ccccn1 | inconclusive: 31.6 µM [inhibitor, full curve, poor fit] |  |
| NS(=O)(=O)c1ccc(NC(=S)NC(=O)c2ccc(Br)o2)cc1 | inconclusive: 35.5 µM [inhibitor, partial curve, poor fit] |  |
| COCCCNC(=O)C[C@H]1C[C@H](C(=O)N2CCOCC2)[C@@]2(C)c3[nH]c4cc(-c5ccco5)ccc4c3CCN2C1=O | inconclusive: 79.4 µM [inhibitor, partial curve, poor fit] |  |
| COc1ccc(S(=O)(=O)CC(=O)c2cc3cc(Br)ccc3oc2=O)cc1 | inconclusive: 17.8 µM [inhibitor, full curve, poor fit] |  |
| CC(C)c1ccccc1NC(=O)COC(=O)Cc1cccc(C(F)(F)F)c1 | inconclusive: 79.4 µM [inhibitor, partial curve, poor fit] |  |
| O=C(c1cc(COc2ccc3ncccc3c2)on1)N1CCC(O)CC1 |  | inactive: -38.7% |
| CCOC(=O)C1CCCN(C(=O)c2ccccc2SCCOC)C1 (stereo not given) |  | inactive: -43.5% |
| CC(=O)c1ccc(NC(=O)c2noc(C)c2[N+](=O)[O-])cc1 | inconclusive: 89.1 µM [inhibitor, single point] |  |
